{
  "source": "the supplement of paper PMC8728848",
  "binders": {"B1": {"name": "DC-Sign (Homo sapiens), Q9NNX6 (protein)", "chain": "MSDSKEPRLQQLGLLEEEQLRGLGFRQTRGYKSLAGCLGHGPLVLQLLSFTLLAGLLVQVSKVPSSISQEQSRQDAIYQNLTQLKAAVGELSEKSKLQEIYQELTQLKAAVGELPEKSKLQEIYQELTRLKAAVGELPEKSKLQEIYQELTWLKAAVGELPEKSKMQEIYQELTRLKAAVGELPEKSKQQEIYQELTRLKAAVGELPEKSKQQEIYQELTRLKAAVGELPEKSKQQEIYQELTQLKAAVERLCHPCPWEWTFFQGNCYFMSNSQRNWHDSITACKEVGAQLVVIKSAEEQNFLQLQSSRSNRFTWMGLSDLNQEGTWQWVDGSPLLPSFKQYWNRGEPNNVGEEDCAEFSGNGWNDDKCNLAKFWICKKSAASCSRDEEQFLSPAPATPNPPPA"}},
  "assay_in_all_cases": "glycan array binding signal (z-score within array); higher = stronger binding",
  "details_in_all_cases": "glycan notation: IUPAC condensed, linker removed",
  "key": {"[1]": {"biological_target": "Fuc(a1-2)Gal", "outline": "(§1)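 Glycan array data were curated from 3228 arrays in the Consortium for Functional Glycomics database and kept only where the protein sequence was available. Glycan names were converted to IUPAC-condensed notation, and columns mapping to the same glycan were averaged. The binding signal is a within-array Z-score, averaged across arrays of the same protein sequence at different concentrations or buffers and across linkers. Negative Z-scores can be read as non-binding.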"}, "[2]": {"biological_target": "Fuc(a1-2)Gal(b1-3)GalNAc", "outline": "as §1"}, "[3]": {"biological_target": "Fuc(a1-2)Gal(b1-3)GalNAc(a1-3)[Fuc(a1-2)]Gal(b1-4)Glc", "outline": "as §1"}, "[4]": {"biological_target": "Fuc(a1-2)Gal(b1-3)GalNAc(a1-3)[Fuc(a1-2)]Gal(b1-4)GlcNAc", "outline": "as §1"}, "[5]": {"biological_target": "Fuc(a1-2)Gal(b1-3)GalNAc(b1-3)Gal", "outline": "as §1"}, "[6]": {"biological_target": "Fuc(a1-2)Gal(b1-3)GalNAc(b1-3)Gal(a1-4)Gal(b1-4)Glc", "outline": "as §1"}, "[7]": {"biological_target": "Fuc(a1-2)Gal(b1-3)GalNAc(b1-4)[Neu5Ac(a2-3)]Gal(b1-4)Glc", "outline": "as §1"}, "[8]": {"biological_target": "Fuc(a1-2)Gal(b1-3)GlcNAc", "outline": "as §1"}, "[9]": {"biological_target": "Fuc(a1-2)Gal(b1-3)GlcNAc(b1-2)Man(a1-3)[Fuc(a1-2)Gal(b1-3)GlcNAc(b1-2)Man(a1-6)]Man(b1-4)GlcNAc(b1-4)GlcNAc", "outline": "as §1"}, "[10]": {"biological_target": "Fuc(a1-2)Gal(b1-3)GlcNAc(b1-2)Man(a1-3)[Fuc(a1-2)Gal(b1-3)GlcNAc(b1-2)Man(a1-6)]Man(b1-4)GlcNAc(b1-4)[Fuc(a1-6)]GlcNAc", "outline": "as §1"}, "[11]": {"biological_target": "Fuc(a1-2)Gal(b1-3)GlcNAc(b1-3)Gal(b1-4)Glc", "outline": "as §1"}, "[12]": {"biological_target": "Fuc(a1-2)Gal(b1-3)GlcNAc(b1-3)GalNAc", "outline": "as §1"}, "[13]": {"biological_target": "Fuc(a1-2)Gal(b1-3)GlcNAc(b1-3)[Fuc(a1-2)Gal(b1-3)GlcNAc(b1-6)]GalNAc", "outline": "as §1"}, "[14]": {"biological_target": "Fuc(a1-2)Gal(b1-3)GlcNAc(b1-3)[Gal(b1-4)GlcNAc(b1-6)]Gal(b1-4)Glc", "outline": "as §1"}, "[15]": {"biological_target": "Fuc(a1-2)Gal(b1-3)GlcNAc(b1-3)[Neu5Ac(a2-6)Gal(b1-4)GlcNAc(b1-6)]Gal(b1-4)Glc", "outline": "as §1"}, "[16]": {"biological_target": "Fuc(a1-2)Gal(b1-3)GlcNAc6S", "outline": "as §1"}, "[17]": {"biological_target": "Fuc(a1-2)Gal(b1-3)[Fuc(a1-4)]GlcNAc", "outline": "as §1"}, "[18]": {"biological_target": "Fuc(a1-2)Gal(b1-3)[Fuc(a1-4)]GlcNAc(b1-2)Man(a1-3)[Fuc(a1-2)Gal(b1-3)[Fuc(a1-4)]GlcNAc(b1-2)Man(a1-3)]Man(b1-4)GlcNAc(b1-4)GlcNAc", "outline": "as §1"}, "[19]": {"biological_target": "Fuc(a1-2)Gal(b1-3)[Fuc(a1-4)]GlcNAc(b1-2)Man(a1-3)[Fuc(a1-2)Gal(b1-3)[Fuc(a1-4)]GlcNAc(b1-2)Man(a1-6)]Man(b1-4)GlcNAc(b1-4)[Fuc(a1-6)]GlcNAc(b1-4)[Fuc(a1-6)]GlcNAc", "outline": "as §1"}, "[20]": {"biological_target": "Fuc(a1-2)Gal(b1-3)[Fuc(a1-4)]GlcNAc(b1-3)[Fuc(a1-3)[Gal(b1-4)]GlcNAc(b1-6)]Gal(b1-4)Glc", "outline": "as §1"}, "[21]": {"biological_target": "Fuc(a1-2)Gal(b1-3)[Fuc(a1-4)]GlcNAc(b1-3)[Gal(b1-4)GlcNAc(b1-6)]Gal(b1-4)Glc", "outline": "as §1"}, "[22]": {"biological_target": "Fuc(a1-2)Gal(b1-4)Fuc(a1-3)]GlcNAc(b1-2)Man(a1-3)[Fuc(a1-2)Gal(b1-4)[Fuc(a1-3)]GlcNAc(b1-2)Man(a1-6)]Man(b1-4)GlcNAc(b1-4)GlcNAc", "outline": "as §1"}, "[23]": {"biological_target": "Fuc(a1-2)Gal(b1-4)Glc", "outline": "as §1"}, "[24]": {"biological_target": "Fuc(a1-2)Gal(b1-4)Glc6S", "outline": "as §1"}, "[25]": {"biological_target": "Fuc(a1-2)Gal(b1-4)GlcNAc", "outline": "as §1"}, "[26]": {"biological_target": "Fuc(a1-2)Gal(b1-4)GlcNAc(b1-2)Man", "outline": "as §1"}, "[27]": {"biological_target": "Fuc(a1-2)Gal(b1-4)GlcNAc(b1-2)Man(a1-3)[Fuc(a1-2)Gal(b1-4)GlcNAc(b1-2)Man(a1-6)]Man(b1-4)GlcNAc(b1-4)GlcNAc", "outline": "as §1"}, "[28]": {"biological_target": "Fuc(a1-2)Gal(b1-4)GlcNAc(b1-2)Man(a1-3)[Fuc(a1-2)Gal(b1-4)GlcNAc(b1-2)Man(a1-6)]Man(b1-4)GlcNAc(b1-4)[Fuc(a1-6)]GlcNAc", "outline": "as §1"}, "[29]": {"biological_target": "Fuc(a1-2)Gal(b1-4)GlcNAc(b1-2)[Fuc(a1-2)Gal(b1-4)GlcNAc(b1-4)]Man(a1-3)[Fuc(a1-2)Gal(b1-4)GlcNAc(b1-2)Man(a1-6)]Man(b1-4)GlcNAc(b1-4)GlcNAc", "outline": "as §1"}, "[30]": {"biological_target": "Fuc(a1-2)Gal(b1-4)GlcNAc(b1-3)Gal(b1-4)GlcNAc", "outline": "as §1"}},
  "note": "Some of the results follow.",
  "data": [
    {"binder": "B1", "values": [
      {"measurement": "glycan array binding signal (z-score)", "setting": "[1]", "result": -0.114},
      {"measurement": "glycan array binding signal (z-score)", "setting": "[2]", "result": -0.18},
      {"measurement": "glycan array binding signal (z-score)", "setting": "[3]", "result": -0.156},
      {"measurement": "glycan array binding signal (z-score)", "setting": "[4]", "result": -0.14},
      {"measurement": "glycan array binding signal (z-score)", "setting": "[5]", "result": -0.179},
      {"measurement": "glycan array binding signal (z-score)", "setting": "[6]", "result": -0.182},
      {"measurement": "glycan array binding signal (z-score)", "setting": "[7]", "result": -0.149},
      {"measurement": "glycan array binding signal (z-score)", "setting": "[8]", "result": -0.18},
      {"measurement": "glycan array binding signal (z-score)", "setting": "[9]", "result": -0.081},
      {"measurement": "glycan array binding signal (z-score)", "setting": "[10]", "result": -0.105},
      {"measurement": "glycan array binding signal (z-score)", "setting": "[11]", "result": -0.169},
      {"measurement": "glycan array binding signal (z-score)", "setting": "[12]", "result": -0.169},
      {"measurement": "glycan array binding signal (z-score)", "setting": "[13]", "result": -0.167},
      {"measurement": "glycan array binding signal (z-score)", "setting": "[14]", "result": -0.175},
      {"measurement": "glycan array binding signal (z-score)", "setting": "[15]", "result": -0.041},
      {"measurement": "glycan array binding signal (z-score)", "setting": "[16]", "result": -0.129},
      {"measurement": "glycan array binding signal (z-score)", "setting": "[17]", "result": -0.096},
      {"measurement": "glycan array binding signal (z-score)", "setting": "[18]", "result": -0.134},
      {"measurement": "glycan array binding signal (z-score)", "setting": "[19]", "result": -0.156},
      {"measurement": "glycan array binding signal (z-score)", "setting": "[20]", "result": -0.025},
      {"measurement": "glycan array binding signal (z-score)", "setting": "[21]", "result": -0.093},
      {"measurement": "glycan array binding signal (z-score)", "setting": "[22]", "result": -0.142},
      {"measurement": "glycan array binding signal (z-score)", "setting": "[23]", "result": -0.13},
      {"measurement": "glycan array binding signal (z-score)", "setting": "[24]", "result": -0.19},
      {"measurement": "glycan array binding signal (z-score)", "setting": "[25]", "result": -0.129},
      {"measurement": "glycan array binding signal (z-score)", "setting": "[26]", "result": -0.164},
      {"measurement": "glycan array binding signal (z-score)", "setting": "[27]", "result": -0.167},
      {"measurement": "glycan array binding signal (z-score)", "setting": "[28]", "result": -0.182},
      {"measurement": "glycan array binding signal (z-score)", "setting": "[29]", "result": -0.174},
      {"measurement": "glycan array binding signal (z-score)", "setting": "[30]", "result": -0.175}
    ]}
  ]
}
